# Source: the supplement of paper PMC4604168 (melanoma cell lines)
# This is one part of the list. Single values are uncertain, as repeats are few or missing.
# How the values were obtained:
# Assay in all cases: cell count relative to DMSO control; melanoma cells; higher = more viable cells
# Conditions in all cases: library dose: low library concentration; 72 h
# WM115 = test system: WM115
# WM1716 = test system: WM1716
# WM1745 = test system: WM1745
# WM3526 = test system: WM3526
# WM3619 = test system: WM3619
# WM451Lu = test system: WM451Lu
# 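Further: cell number obtained by counting DAPI-stained nuclei in high-throughput microscope images with image analysis software, screen run in 1,536-well plates.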
Structure (SMILES),cell count (WM115) [%],cell count (WM1716) [%],cell count (WM1745) [%],cell count (WM3526) [%],cell count (WM3619) [%],cell count (WM451Lu) [%]
"Cn1c(Nc2ccc(C(F)(F)F)cc2)nc2cc(Oc3ccnc(-c4ncc(C(F)(F)F)[nH]4)c3)ccc21 + O=C(O)c1ccc(-c2c[nH]c3ncc(-c4ccccc4)cc23)cc1C1CCCC1 [GSK650394] (first compound 0.08 µM, partner dose 0.16 µM)",51.2,79,67.7,52.8,72.5,81.5
"O=C(CCCCCCC(=O)Nc1ccccc1)NO [vorinostat] + O=C1NC(=O)/C(=C/c2ccc(-c3ccc(F)cc3O)o2)S1 [AS252424] (first compound 0.08 µM, partner dose 1 µM)",102,94.8,93.8,92.2,92.2,93.9
"Clc1ccc(Nc2nnc(Cc3ccncc3)c3ccccc23)cc1 [vatalanib] + Cc1cc(N2CCOCC2)cc2[nH]c(-c3c(NC[C@@H](O)c4cccc(Cl)c4)cc[nH]c3=O)nc12 [BMS536924] (first compound 2 µM, partner dose 0.2 µM)",100,99.5,84.9,94.5,91.5,88.3
"C#Cc1cccc(Nc2ncnc3cc(OCCOC)c(OCCOC)cc23)c1 [erlotinib] + NC(=O)Nc1cc(-c2cccc(F)c2)sc1C(=O)N[C@H]1CCCNC1 [AZD7762] (first compound 0.8 µM, partner dose 0.02 µM)",76.6,88.4,81.1,70.8,44.2,87
"O=C(CCCCCCC(=O)Nc1ccccc1)NO [vorinostat] + O=C(O)c1ccc(-c2c[nH]c3ncc(-c4ccccc4)cc23)cc1C1CCCC1 [GSK650394] (first compound 0.08 µM, partner dose 0.16 µM)",99.6,111,112,83.2,109,90.1
"Nc1cccc2c1CN(C1CCC(=O)NC1=O)C2=O (stereo unspecified) [lenalidomide] + COc1cc(N2CCC(N3CCN(C)CC3)CC2)ccc1Nc1ncc(Cl)c(Nc2ccccc2S(=O)(=O)C(C)C)n1 [NVP-TAE684] (first compound 1 µM, partner dose 0.08 µM)",85.4,103,70.8,80.4,136,103
"COCC[n+]1c2c(n(Cc3cnccn3)c1C)C(=O)c1ccccc1C2=O + COc1cc2ncnc(Nc3ccc(Oc4ccccc4)cc3)c2cc1OC [SrcI1] (first compound 0.0004 µM, partner dose 2 µM)",102,105,87,117,108,70.5
"COCC[n+]1c2c(n(Cc3cnccn3)c1C)C(=O)c1ccccc1C2=O + NC(=O)Nc1cc(-c2cccc(F)c2)sc1C(=O)N[C@H]1CCCNC1 [AZD7762] (first compound 0.0004 µM, partner dose 0.02 µM)",95.7,106,104,81.9,58.6,60.8
"C#Cc1cccc(Nc2ncnc3cc(OCCOC)c(OCCOC)cc23)c1 [erlotinib] + CCN(CC)CCCCNc1ncc2cc(-c3cc(OC)cc(OC)c3)c(NC(=O)NC(C)(C)C)nc2n1 [PD173074] (first compound 0.8 µM, partner dose 0.1 µM)",96.9,109,72.3,94.4,114,98.1
"C#Cc1cccc(Nc2ncnc3cc(OCCOC)c(OCCOC)cc23)c1 [erlotinib] + O=C(CCCCCCC(=O)Nc1ccccc1)NO [vorinostat] (first compound 0.8 µM, partner dose 0.08 µM)",89.3,100,79.6,71.8,79.3,97.4
"C#Cc1cccc(Nc2ncnc3cc(OCCOC)c(OCCOC)cc23)c1 [erlotinib] + CN(C)S(=O)(=O)c1ccc2c(c1)/C(=C/c1cc3c([nH]1)CCCC3)C(=O)N2 [SU6656] (first compound 0.8 µM, partner dose 0.4 µM)",85,83.1,91.2,69,86.6,53.9
"Clc1ccc(Nc2nnc(Cc3ccncc3)c3ccccc23)cc1 [vatalanib] + COc1ccc(COc2ccc(Cc3cnc(N)nc3N)cc2OC)cc1 [GW2580] (first compound 2 µM, partner dose 1 µM)",96.9,93.6,81.3,94.7,109,114
"Clc1ccc(Nc2nnc(Cc3ccncc3)c3ccccc23)cc1 [vatalanib] + CCCCCCCCCCCC1=C(O)C(=O)C=C(O)C1=O [Embelin] (first compound 2 µM, partner dose 1.2 µM)",88.9,92.1,96.7,96.1,109,107
"Clc1ccc(Nc2nnc(Cc3ccncc3)c3ccccc23)cc1 [vatalanib] + CCN(CC)CCCCNc1ncc2cc(-c3cc(OC)cc(OC)c3)c(NC(=O)NC(C)(C)C)nc2n1 [PD173074] (first compound 2 µM, partner dose 0.1 µM)",92.1,86.2,96.3,105,109,95
"COCC[n+]1c2c(n(Cc3cnccn3)c1C)C(=O)c1ccccc1C2=O + Oc1cc(-c2nc(-c3ccccc3)[nH]c2-c2ccncc2)ccc1Cl [L779450] (first compound 0.0004 µM, partner dose 0.2 µM)",90.4,107,90.5,78.2,60.8,71.4
"C#Cc1cccc(Nc2ncnc3cc(OCCOC)c(OCCOC)cc23)c1 [erlotinib] + C=CCn1c(=O)c2cnc(Nc3ccc(N4CCN(C)CC4)cc3)nc2n1-c1cccc(C(C)(C)O)n1 [MK1775] (first compound 0.8 µM, partner dose 0.02 µM)",76.5,69.6,62.7,96.3,47.3,134
"OCc1c[nH]c2ccccc12 [Indole-3-carbinol] + COc1cc(Nc2ncc(F)c(Nc3ccc4c(n3)NC(=O)C(C)(C)O4)n2)cc(OC)c1OC [Tamatinib] (first compound 0.8 µM, partner dose 0.4 µM)",90.8,93.7,69.1,106,95.9,86
"COCC[n+]1c2c(n(Cc3cnccn3)c1C)C(=O)c1ccccc1C2=O + O=c1cc(-c2cccc3c2Sc2ccccc2S3)oc(N2CCOCC2)c1 [KU55933] (first compound 0.0004 µM, partner dose 1 µM)",94.1,94,86.6,88,103,114
"COCC[n+]1c2c(n(Cc3cnccn3)c1C)C(=O)c1ccccc1C2=O + COc1ccc(-c2ccc3c(N4CCOCC4)nc(N4C[C@@H](C)O[C@@H](C)C4)nc3n2)cc1CO [KU0063794] (first compound 0.0004 µM, partner dose 0.02 µM)",92.2,80.9,88.2,71.4,119,73.8
"Cn1c(Nc2ccc(C(F)(F)F)cc2)nc2cc(Oc3ccnc(-c4ncc(C(F)(F)F)[nH]4)c3)ccc21 + Oc1cc(-c2nc(-c3ccccc3)[nH]c2-c2ccncc2)ccc1Cl [L779450] (first compound 0.08 µM, partner dose 0.2 µM)",49.9,73.3,49.7,41.8,64.2,102
"C#Cc1cccc(Nc2ncnc3cc(OCCOC)c(OCCOC)cc23)c1 [erlotinib] + CC(C)CCN1c2nc(Nc3cc(F)c(O)c(F)c3)ncc2N(C)C(=O)C1C [BID1870] (first compound 0.8 µM, partner dose 0.2 µM)",89.3,91.2,87,87.7,109,98.3
